Data reported in PubChem BioAssay AID624417 (National Center for Advancing Translational Sciences (NCATS), 2012).
Screen size: about 410,000 compounds; about 6,400 (1.6%) were called active. This list was built around the results that the source calls inconclusive (neither active nor inactive); the mix of calls is not that of the screen. The call rests on the fitted dose curve; in most records, active means well fitted inhibition curve with a large enough effect; inconclusive means small, poorly fitted or top-dose-only effect; inactive means no such curve, though single readings can be large or run the other way. Potencies of inconclusive entries are left out as doubtful fits.

The compounds below were run against Glucagon-like peptide 1 receptor (Homo sapiens) (UniProt P43220) (assay: qHTS of GLP-1 Receptor Inverse Agonists (Inhibition Mode)). Conditions: HEK293 GLP-1R CRE-luciferase, luminescence, 24 h, GLP-1R form is constitutively active; activity change, negative = inhibition: at 38.3 µM (top of the series) unless noted.
Outline: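 Inverse agonists were sought by their lowering of basal cAMP reporter luciferase output in HEK293 cells stably carrying constitutively active human GLP-1R, after 24 h compound treatment.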
Further: nearly all actives have a fitted effect of over 55% in size.
On the % scale 0 is the no-effect control and ±100 the full control effect; potency means the concentration at half of the fitted maximal effect; tags describe the fitted curve by direction and shape.

Chain of UniProt P43220 (P43220 whole entry, looked up): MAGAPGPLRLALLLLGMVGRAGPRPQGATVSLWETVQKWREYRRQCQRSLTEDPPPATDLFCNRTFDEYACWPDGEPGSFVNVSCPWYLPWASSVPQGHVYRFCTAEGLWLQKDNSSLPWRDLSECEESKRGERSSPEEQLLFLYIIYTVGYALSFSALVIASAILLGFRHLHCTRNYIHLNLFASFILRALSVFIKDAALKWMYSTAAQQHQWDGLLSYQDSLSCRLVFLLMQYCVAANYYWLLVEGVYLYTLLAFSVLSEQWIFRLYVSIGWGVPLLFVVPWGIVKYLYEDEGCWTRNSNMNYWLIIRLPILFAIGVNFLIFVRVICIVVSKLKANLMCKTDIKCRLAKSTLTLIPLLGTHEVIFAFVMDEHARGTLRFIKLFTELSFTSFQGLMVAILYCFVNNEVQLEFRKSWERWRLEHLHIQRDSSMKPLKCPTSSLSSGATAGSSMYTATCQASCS

| Compound | Potency | activity change, negative = inhibition |
| --- | --- | --- |
| Fc1ccc(Nc2nc(-c3cccc(Cl)c3)c3c(n2)-c2ccccc2OC3)cc1 | inactive |  |
| O=C(CC1SC(N2CCCC2)=NC1=O)Nc1ccc(C(=O)N2CCCC(C(F)(F)F)C2)cc1 (stereo not drawn) | inactive |  |
| CC(C)C(=O)NC(Nc1cccc([N+](=O)[O-])c1)C(Cl)(Cl)Cl (stereo not drawn) | inconclusive [inhibitor, single point] |  |
| Cc1cc(C#Cc2c(-c3ccccc3)n(C)c3ccccc23)ccc1F | inconclusive [inhibitor, single point] |  |
| O=[N+]([O-])c1ccc(NC(=S)N2CCN(S(=O)(=O)c3ccccc3)CC2)cc1 | inconclusive [inhibitor, partial curve, poor fit] |  |
| COc1ccc(NS(=O)(=O)c2cccc(C(=O)NC3CCN(Cc4ccccc4)CC3)c2)cc1 | inconclusive [inhibitor, single point] |  |
| O=C(c1ccccc1)N1N=C(c2cccs2)CC1c1ccccc1O (stereo not drawn) | active: 8.91 µM |  |
| Cc1ccc(NC(=O)C(=O)c2cn(CC(=O)N3CCCCC3)c3ccccc23)cc1 | inconclusive [inhibitor, partial curve, poor fit] |  |
| Brc1ccc2c(c1)CN1CCCC1=N2 | inactive |  |
| Cc1c(C(=O)Nc2ccccc2)sc2nc(-c3cc4ccccc4oc3=O)[nH]c(=O)c12 | inactive |  |
| COc1ccc(C2/C=C\CN(C(=O)C3CC3)[C@H](Cc3ccccc3)C(=O)N2Cc2ccc(F)cc2)cc1 (stereo partly drawn) | inconclusive [inhibitor, single point] |  |
| COc1ccc(Cl)cc1NC(=O)CNCc1cccs1 | inconclusive [inhibitor, single point] |  |
| CCn1c2ccccc2c2cc(NC(=O)C(C)C)ccc21 | inconclusive [inhibitor, single point] |  |
| CC(NC(=O)c1cccc(S(=O)(=O)N2CCc3ccccc32)c1)c1ccco1 (stereo not drawn) | inconclusive [inhibitor, single point] |  |
| Cc1ccc2nc(NC(=O)CCNS(=O)(=O)c3ccc(Br)s3)sc2c1 | inconclusive [inhibitor, single point] |  |
| COCCn1c(C)cc(C(=O)CSc2nc3ccccc3o2)c1C | inconclusive [inhibitor, single point] |  |
| Cc1sc2nc(CSc3ccccc3)nc(NCCN(C)C)c2c1C | inconclusive [inhibitor, single point] |  |
| CC1=Nc2cc(C(=O)O)ccc2Sc2ccc(C)cc21 | inactive |  |
| Cc1cc2ccccc2n1CCNC(=O)c1ccccc1F | inactive |  |
| Cc1c(C(=O)OCC(C)(C)CN(C)C)oc2ccccc12 | inconclusive [inhibitor, single point] |  |
| Cc1ccc(C2=NN(S(=O)(=O)c3ccccc3)C(c3ccccc3O)C2)cc1 (stereo not drawn) | inconclusive [inhibitor, partial curve, poor fit] |  |
| Cc1nn(CC(=O)N2CCC(C)CC2)c(=O)c2cccn12 | inactive |  |

| Compound | Potency | activity change, negative = inhibition |
| --- | --- | --- |
| CCN(CC(=O)NCc1ccc(Cl)cc1)C(=O)c1cccc(S(=O)(=O)Nc2ccc(OC)cc2)c1 | inconclusive [inhibitor, partial curve] |  |
| CC(C)c1ccc(S(=O)(=O)c2nnn3c2nc(NCc2cccs2)c2sccc23)cc1 | inactive |  |
| CCOC(=O)c1ccc(NC(=S)Nc2ccccn2)cc1 | inconclusive [inhibitor, full curve, poor fit] |  |
| CCCCc1c(C)nn(-c2nnc3c4ccccc4n(CC)c3n2)c1C | active: 10 µM |  |
| Nc1nc(N)c2cc(Sc3ccc(Cl)cc3)ccc2n1 | inconclusive [inhibitor, partial curve, poor fit] |  |
| O=C(Cc1cccc(C(F)(F)F)c1)Nc1ccc(S(=O)(=O)N2CCCC2)cc1 | inconclusive [inhibitor, partial curve, poor fit] |  |
| O=C(NNC(=O)c1ccccc1O)c1ccc(NS(=O)(=O)c2ccc(F)cc2)cc1 | inconclusive [inhibitor, partial curve] |  |
| COc1ccc(-c2nnc(OCc3ccccc3)c3ccccc23)cc1 | inconclusive [inhibitor, partial curve, poor fit] |  |
| CCC(C)N=C1Sc2nc3ccc(C)cc3cc2CN1CCOC (stereo not drawn) | inconclusive [inhibitor, single point] |  |
| CC(C)c1ccc(CN2CCC2(C)C(=O)Nc2ccc3c(c2)OCO3)cc1 (stereo not drawn) | inconclusive [inhibitor, partial curve, poor fit] |  |
| CCc1nc(N)nc(N)c1-c1ccc(Cl)cc1 | inconclusive [inhibitor, single point] |  |
| O=C(NN=C1CCCC1)c1n[nH]c2c1CCCC2 | inconclusive [inhibitor, single point] |  |
| COc1ccccc1-c1cc(NC(C)=O)c2ncc(-c3cccc(C(F)(F)F)c3)n2c1 | inconclusive [inhibitor, single point] |  |
| Cc1cc(C)cc(NC(=O)NC2CCCCCCC2)c1 | inconclusive [inhibitor, partial curve, poor fit] |  |
| O=c1[nH]nc(SCc2ccccc2)n1C1CC2C=CC1C2 (stereo not drawn) | inconclusive [inhibitor, single point] |  |
| CC(=O)CSc1nc2cc3c(cc2cc1C#N)OCCO3 |  | inactive: 8.07% [at 0.307 µM] |
| O=C(NCCCN1CCN(CCCNC(=O)c2cccc(Cl)c2)CC1)c1cccc(Cl)c1 | inconclusive [inhibitor, single point] |  |
| CC(C)(C)c1ccc(C(=O)NC(=O)COC(=O)CCS(=O)(=O)c2ccccc2)cc1 | inactive |  |
| Fc1ccc(NC(=S)NCc2ccccc2Cl)cc1 | inconclusive [inhibitor, partial curve, poor fit] |  |
| O=C(Nc1cccc(Oc2ccccc2)c1)C1Cc2c(-c3ccc4c(c3)OCO4)ccnc2O1 (stereo not drawn) | inconclusive [inhibitor, single point] |  |
| CC(=O)c1cc2c(cc1NS(=O)(=O)c1ccc(C)cc1)OCCO2 | inconclusive [inhibitor, partial curve] |  |
